Here are results for one molecule from PMC9708679, “Structures of the R-type human Cav2.3 channel reveal conformational crosstalk of the intracellular segments” (Nature Communications, 2022).

For assay [1], the target named is T1, CH2-deleted human Cav2.3 α1 subunit (ΔCH2) (human, UniProt Q15878-1 1-2313, residues 773-791 of the α1 subunit were deleted).
T1 construct: Cav2.3 α1 subunit, human, CACNA1E, Uniprot Q15878-1 (2,313 residues) with the entire CH2II helix (residues 773-791) deleted; pCAG vector; deletion made by two-step PCR; also called Cav2.3-ΔCH2; CH2II-truncated mutant; source: HEK293F, transiently co-transfected with α2δ-1 and β3, purified as a complex (anti-Flag M2 resin, Superose 6 SEC) in GDN; not shown: Flag, N-terminal, kept
The assay can be described thus: cryo-EM structure; ΔCH2 Cav2.3 complex co-expressed with α2δ-1 and β3 in HEK293F and co-purified by the same protocol; 3.1 Å; 3D variability analysis of low pass-filtered maps in cryoSPARC. The conditions noted are these: both partners purified.

Assay [2] deals with T2, human Cav2.3 α1 subunit (full-length, wild type) (human, UniProt Q15878-1 1-2313).
T2 construct: Cav2.3 α1 subunit, human, codon-optimized cDNA of CACNA1E, 2,313 residues, Uniprot Q15878-1; pCAG vector; also called WT Cav2.3; CACNA1E; source: HEK293F, transiently co-transfected with α2δ-1 and β3, purified as a complex (anti-Flag M2 resin, Superose 6 SEC) in GDN; not shown: Flag, N-terminal, kept
The assay can be described thus: cryo-EM structure; wild-type Cav2.3 complex (α1, α2δ-1, β3) co-expressed in HEK293F and co-purified; 25 mM HEPES pH 7.4, 150 mM NaCl, 2 mM CaCl2, 0.01% GDN; about 20 mg/mL with α2δ-1 in excess; 220 μM SNX-482 added to two of three batches; 3.1 Å. The conditions noted are these: both partners purified.

B1: human α2δ-1 subunit (natural protein)
chain: not shown
notes: α2δ-1 subunit, human, codon-optimized cDNA of CACNA2D1, 1,103 residues, Uniprot […]; Expressed from the whole 1,103-residue cDNA; also called CACNA2D1; source: HEK293F, transiently co-transfected with α1 and β3, purified as a complex (anti-Flag M2 resin, Superose 6 SEC) in GDN
On to B1, for which the binding result in assay [1] and in assay [2] was “binds” throughout.
